# ± gives the standard deviation of the averaged measurements. This is one part of the list.
# Tested on: PfAP2-LT AP2 domain (GST-tagged)
# Experiment: gcPBM binding intensity (ln(normalized median fluorescence intensity)); higher = stronger DNA binding
# In short: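 DNA-binding domains from P. falciparum, fused to GST and produced in E. coli, were put on an Agilent 4 × 180k double-stranded probe array for 1 h in 1× PBS holding 1% milk, 0.2 mg/ml BSA, 0.5% salmon testes DNA and 0.03% Triton X-100. Probes were primer-extended, 36 bp long and drawn from intergenic genomic regions, with negative controls included. After Alexa488 anti-GST antibody detection and a 488 nm scan, binding intensity was set as the highest Masliner-normalised natural-log median intensity across replicate spots of either probe orientation.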
row,Sequence,gcPBM binding intensity (ln)
1,AATAGTAAAAGATATACACACACCAAAAAATATAAT [CACACA_site5293],9.47 ± 0.25
2,TTACACATGTTTAACTGTACACATAATAGCAATATT [XGTACX_site8545],8.88 ± 0.3
3,ACAATTATTTTGTTCTTTAATGGTAGGTTCTATGTC [CACACA_negctrl_site1419],8.76 ± 0.52
4,CATAAATTACTTTTTACACACTAAAATAAAATACAA [CACACA_site1135],8.67 ± 0.47
5,CTAAAAAATAGTAAAAGTACATAAATAATTTTGCTT [XGTACX_site8919],8.63 ± 0.53
6,TTATATATTTTTATGTGTACTTATATATATATATAT [XGTACX_site6211],8.98 ± 0.38
7,CACAAAGACACAAACACACACACACCCACATACATA [CACACA_site452],9.86 ± 0.24
8,ATTTCCCTATATAGAGCATGCACTATATTCAAATGA [TGCATGCA_site531],8.73 ± 0.26
9,TACTTATTTAAAATAGTGCATGAATAGAAGATATAT [GTGCAC_site9756],8.62 ± 0.39
10,AACAAAAACACTTTTACACACATAAGTAAAATATAT [CACACA_site1994],9.15 ± 0.4
11,AAAAAAAAATATAACAGTACATAAACATATGAATAT [XGTACX_site7093],8.96 ± 0.43
12,TCAACCAAAACATAAGCATGCAATATATTTTTATAC [TGCATGCA_site560],8.82 ± 0.41
13,TTTTATAATTTCTTCTGTACATATATATGAAAATAT [XGTACX_site74],8.54 ± 0.45
14,AAAAATAAACGACAGTGTACTAAATATTTAATTTTC [XGTACX_site3580],8.8 ± 0.59
15,TATTCTAAAGAAATTACACACATGCAATGAAAAAAA [CACACA_site6895],8.81 ± 0.45
16,CAGGGCAGGGGGAAGGGTACACATAAAAGAAAATAA [XGTACX_site172],9.02 ± 0.25
17,TATAAATATATATTTTGTACTTAATATAAATTTATA [XGTACX_site7996],8.38 ± 0.43
18,GGTTCATATCTTAACACACACATACATATTATAGAT [CACACA_site7392],9.33 ± 0.33
19,ATACAATTTATTTTAACACACGAATGAATTGATTAT [CACACA_site4160],8.73 ± 0.42
20,ATACAAATATACTTTTGTACGAAGAAATATATATAT [XGTACX_site3912],8.85 ± 0.43
21,ATAAAAAAAATAAAAAGTACAAAAAAAAAAAATGGA [XGTACX_site136],8.87 ± 0.73
22,TAAAGAAACTATTCAACACACGGTCTAATTATTACA [CACACA_site1064],8.71 ± 0.38
23,TATAAATATAGACACACACACACCAAAGCGTAGCGC [CACACA_site6179],9.77 ± 0.41

row,Sequence,gcPBM binding intensity (ln)
1,TATATATATTATAATACATGCGGTGATGAAAGTTAT [TGCATGCA_site924],9.07 ± 0.58
2,TATGAAGTACACAATACACACTAATTATATATAAAT [CACACA_site5444],9.11 ± 0.43
3,TTTTTAAAAAAACATACACACAAAAAAAAAAAAAAA [CACACA_site3935],8.59 ± 0.49
4,TATAATATATATATATTTATATATATCTTCCTAATC [GTGCAC_negctrl_site682],8.64 ± 0.49
5,TTTTTTTATATAGACACAAAAGAAAATTACATATAC [CACACA_negctrl_site235],8.24 ± 0.45
6,GATTTGTCTTACAGTGGTACACTTATATATATGTGA [XGTACX_site2899],8.9 ± 0.39
7,AATATTTATTTTATATGTACATAATTTATTTTTAAT [XGTACX_site776],8.73 ± 0.43
8,AAAAAAAAAAAAAAAACACACAAGGATCATATATAT [CACACA_site3812],8.95 ± 0.41
9,AATAAAAATATATCCACACACATATATATATCTGTA [CACACA_site4481],9.37 ± 0.31
10,TATATTATATTTTTATGTACATATATGTTTTTTTTT [XGTACX_site8239],8.93 ± 0.55
11,ATTTTATCAAGAGGAAGTACATTACCCCATGAAAAA [XGTACX_site8295],8.57 ± 0.32
12,AATGGAGTTTATAAGTATAAACGAGGGATACCTAAA [XGTACX_negctrl_site483],8.81 ± 0.45
13,AATATAAATAATAGTAGTACATATATATCTCAGAAA [XGTACX_site4055],8.84 ± 0.5
14,TAAATAAATTTATACACACACACACCCATATATATA [CACACA_site849],10.04 ± 0.035
15,AAAAAATCAAAACACACACACACACTAGAAAAAAAA [CACACA_site4909],10.1 ± 0.49
16,TTATGTTGTAAATGCACACATACATATACGCAGTTT [CACACA_site3015],9.02 ± 0.33
17,CAATTTTACTCATAAACACACATATAGATGTTATTA [CACACA_site7474],8.78 ± 0.38
18,TATATATATATATGATGTACATGAAAATTTCCAAAA [XGTACX_site5472],8.78 ± 0.47
19,TATATTTTTTAATTCACACAAAAATGAAAAATATTT [CACACA_site6001],8.28 ± 0.38
20,ATATCTGAAGTGTAAAGTACATATATATATTCATAT [XGTACX_site4612],8.85 ± 0.35
21,ATATATATATAATGTAGTACTATTTAATAATAAGCC [XGTACX_site1263],9.22 ± 0.4
22,ACCATATGTACATTTTTTTTTTTTTTTTTTTTTTTT [CACACA_negctrl_site1188],9.05 ± 0.15
23,ACATTCAAGCGTAATTGTACATACATATATATATAT [XGTACX_site8876],9.55 ± 0.3

row,Sequence,gcPBM binding intensity (ln)
1,TATTGTATCCTTAATGCATGCACCAAATAAAAAAAG [TGCATGCA_site541],8.69 ± 0.28
2,ATGTATATAAATAGTAGTACATTATTTCACACTGTA [XGTACX_site2061],8.88 ± 0.38
3,AAAAAAAAAAAAAAAGCACACACCAATGAGCAGCTT [CACACA_site1845],9.1 ± 0.2
4,CACACCCACAGACACACACACACATATATAATATAT [CACACA_site594],10.2 ± 0.54
5,TATAATCATATACACGCATGTATAAAATTTAATACT [TGCATGCA_site700],8.96 ± 0.35
6,TAATATATGTATTATGCATGTGAATAAGCACTTGAT [TGCATGCA_site848],8.74 ± 0.31
7,ATATGTTACAAAGATTGTACTTATTAAGGAGCGACT [XGTACX_site5094],8.85 ± 0.36
8,TGTAAACATAAGATATGTACTTATATCATATTATAA [XGTACX_site6883],8.59 ± 0.59
9,ATGACAATTCAAAATTGTACATAAAAAAAAAAAAAA [XGTACX_site7560],8.45 ± 0.48
10,AAATAAAAATAAAATAAAATAAAATTAAATGGGAAT [GTGCAC_negctrl_site349],8.79 ± 0.42
11,GTTTTATATTATATATGTACATATCCATGAGATATA [XGTACX_site3328],8.91 ± 0.4
12,TTTAACTTTTATATAACACACATATTGTAATTATGT [CACACA_site6486],9.12 ± 0.32
13,TTCATATGTTTTAACACACACGCATATATTATATAT [CACACA_site2007],9.22 ± 0.39
14,AAAAAAATTTGGCATACACACACACCCCCACCCACA [CACACA_site8094],10.41 ± 0.05
15,AAAAAACATTTTCGAGTGCATGTTTTGCTTTATTTC,8.85 ± 0.35
16,AATAATTTGGTCTTATCAAAAATTAAAAATAAATAA [XGTACX_negctrl_site430],8.32 ± 0.4
17,TTAAATGTTAAAAGGGTGCTATTATATAAATGAAAA [GTGCAC_site9882],8.46 ± 0.45
18,AAAAATTACCCTTGTGTACACATATATTATCTGTAT [CACACA_site4513],9.14 ± 0.46
19,AACATATTGGATTTAGTGCACATATATATCATAATA,8.8 ± 0.47
20,TCTTATAAACATGTATATATTAAAAAAAAAAAAAAA [TGCATGCA_negctrl_site86],8.29 ± 0.45
21,TATAAGCTTTCAATGTGTACATATTATTTTATTATT [XGTACX_site3988],8.94 ± 0.4
22,TAATAATAATTAAATTGTACATATAATATAATATAA [XGTACX_site8554],8.49 ± 0.45
23,AATAAAGTAATAACTACACACATTTATAAAAAAGTA [CACACA_site3753],9.01 ± 0.53

row,Sequence,gcPBM binding intensity (ln)
1,ATATTATCATATTCGAGTACACGAAGTATTATTGCA [XGTACX_site6765],8.89 ± 0.31
2,TAAAAATTACTATATGAACACACATGATTAGATATA [CACACA_site9012],8.71 ± 0.41
3,AGGTGATTAATATATACACACATACATATATATATA [CACACA_site8913],9.36 ± 0.3
4,AACCATAAAAAGTGTACACATATAAAAAATATGGAA [CACACA_site4199],9.21 ± 0.53
5,TATATAAATTAACCAGTGCATTATTTGGAAATTATT,8.63 ± 0.42
6,TATGCTTTTACAATGTGTACTTATATTTTTCACAGG [XGTACX_site6201],9.02 ± 0.43
7,ATATATCATCATGTATGTACACACATACATATATTA [XGTACX_site2814],9.21 ± 0.29
8,TAATTTTCAATAATTTGTACATAATTTTTATAAATT [XGTACX_site8133],8.31 ± 0.59
9,ACAAGAGAAAAAAATACACACAAGATAAAAATGTAT [CACACA_site607],9.21 ± 0.46
10,TAAAAAAATTTTACAAGTACAAAAAAATGTAATAAA [XGTACX_site4829],8.68 ± 0.6
11,ATATATATAGATCGAAGTACAGATAGAATGAAAATA [XGTACX_site2695],9.14 ± 0.28
12,ATATATAAATATATTTGTACATATAATATGTATTAT [XGTACX_site8820],8.83 ± 0.38
13,CTAGGTATGCTTTAAACATGCAAAAATACAAATTAC [TGCATGCA_site239],8.91 ± 0.49
14,AAATATTATAAAAAGGTGCATTTTTATTATATGAGT,8.64 ± 0.4
15,TTTTGTTATAATAAAGTGCATTTAGTCGGGTTACAA [GTGCAC_site9779],8.5 ± 0.42
16,ATATATGTTTTTATATGTACTTATAATGTGTGTATA [XGTACX_site5165],9.26 ± 0.36
17,AATTTAAAAAAAATCACACACAGAAAAAAAAAAAAA [CACACA_site2322],8.96 ± 0.52
18,AAGGAAAACAATAGGTGTACCAAACGTCCTAGGAAC [XGTACX_site5732],9.26 ± 0.57
19,TTTCTTCATTTTTTCACACATAAGAAAATATAATCA [CACACA_site4275],8.38 ± 0.4
20,AAAAAAGCAATATGATGTACATTTACTTTGTGAAAG [XGTACX_site4450],8.73 ± 0.46
